Results from patent publication US20200270335A1.

Target: T1, human LRP6 on huLRP6-expressing BaF3 cells (human), O75581
T1 chain: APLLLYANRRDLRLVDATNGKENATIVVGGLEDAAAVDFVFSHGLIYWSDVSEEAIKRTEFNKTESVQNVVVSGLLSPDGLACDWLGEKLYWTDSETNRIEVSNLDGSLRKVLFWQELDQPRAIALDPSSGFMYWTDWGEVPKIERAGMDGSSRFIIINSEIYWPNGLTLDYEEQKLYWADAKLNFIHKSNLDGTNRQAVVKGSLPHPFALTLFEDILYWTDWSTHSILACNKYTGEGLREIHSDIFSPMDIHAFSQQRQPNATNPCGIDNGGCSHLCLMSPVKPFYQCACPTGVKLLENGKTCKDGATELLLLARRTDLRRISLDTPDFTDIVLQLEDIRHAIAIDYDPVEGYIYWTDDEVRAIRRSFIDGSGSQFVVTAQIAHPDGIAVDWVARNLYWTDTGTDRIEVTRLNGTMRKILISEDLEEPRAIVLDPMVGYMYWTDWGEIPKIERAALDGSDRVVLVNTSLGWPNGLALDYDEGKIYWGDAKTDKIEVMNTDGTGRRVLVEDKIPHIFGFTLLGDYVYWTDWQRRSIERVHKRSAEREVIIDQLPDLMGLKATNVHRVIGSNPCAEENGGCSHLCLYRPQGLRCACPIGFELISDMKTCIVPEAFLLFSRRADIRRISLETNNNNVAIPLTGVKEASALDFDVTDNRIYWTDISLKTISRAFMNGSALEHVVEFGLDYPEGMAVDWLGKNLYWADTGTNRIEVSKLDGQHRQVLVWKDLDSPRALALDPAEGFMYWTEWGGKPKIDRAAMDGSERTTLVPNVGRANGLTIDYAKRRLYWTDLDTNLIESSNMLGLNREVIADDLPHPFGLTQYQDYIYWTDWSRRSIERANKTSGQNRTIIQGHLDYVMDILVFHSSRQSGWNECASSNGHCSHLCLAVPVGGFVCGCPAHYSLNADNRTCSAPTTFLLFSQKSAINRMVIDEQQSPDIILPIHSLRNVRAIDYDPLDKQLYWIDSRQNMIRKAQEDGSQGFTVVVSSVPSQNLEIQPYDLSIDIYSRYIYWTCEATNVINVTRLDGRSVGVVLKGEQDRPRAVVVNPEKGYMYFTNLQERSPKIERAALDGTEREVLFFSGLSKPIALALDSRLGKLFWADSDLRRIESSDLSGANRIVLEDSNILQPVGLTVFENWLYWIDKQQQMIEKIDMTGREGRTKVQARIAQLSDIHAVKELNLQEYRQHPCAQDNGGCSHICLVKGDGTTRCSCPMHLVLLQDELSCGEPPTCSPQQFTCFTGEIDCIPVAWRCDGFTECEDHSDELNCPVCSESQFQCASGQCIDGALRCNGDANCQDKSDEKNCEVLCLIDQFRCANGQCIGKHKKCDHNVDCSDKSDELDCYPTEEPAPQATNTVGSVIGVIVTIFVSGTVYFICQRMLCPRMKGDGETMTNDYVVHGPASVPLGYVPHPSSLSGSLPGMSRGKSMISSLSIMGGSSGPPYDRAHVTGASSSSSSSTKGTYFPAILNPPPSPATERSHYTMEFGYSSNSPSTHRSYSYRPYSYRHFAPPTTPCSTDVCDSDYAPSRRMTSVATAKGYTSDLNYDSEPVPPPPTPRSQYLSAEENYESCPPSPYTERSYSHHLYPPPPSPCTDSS
Experiment: FACS competition on huLRP6-expressing BaF3 cells; free LRP6 detected with anti-LRP6 antibody YW211.31.57
Settings: remark: other sources report otherwise

IC50: 100 µM
B1: ACE503 HSA-huDKK2 C2 K202E/K220E (ligand)
chain: [skipping about 600 residues]GSHIKGHEGDPCLRSSDCIEGFCCARHFWTEICKPVLHQGEVCTKQRKEGSHGLEIFQRCDCAKGLSCKVWKDATYSSKARLHVCQKI
